Here are results for 44 sequences from the supplement of paper PMC11417369.

± gives the standard deviation of the averaged measurements. The list shows a part of the results.

The test system of this test is PfAP2-G AP2 domain (GST-tagged). Description: gcPBM binding intensity (ln(normalized median fluorescence intensity)); higher = stronger DNA binding. The method, boiled down:
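GST-tagged P. falciparum DNA-binding domains produced in E. coli were incubated for 1 h on an Agilent 4 × 180k array of primer-extended double-stranded 36-bp intergenic genomic probes with negative controls. Binding intensity is the highest Masliner-normalised natural-log median intensity across replicate spots of either probe orientation, with bound protein detected by Alexa488 anti-GST antibody at 488 nm.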
For “AAGATCATATATTCGTGGGTATAAAAAGTTATAATA [TGCATGCA_negctrl_site439]”, the “gcPBM binding intensity (ln)” value is 10.1 ± 0.13.
In the case of “GTAATATTATAATATACACACATAGAATATATATAT [CACACA_site413]”, the “gcPBM binding intensity (ln)” value worked out at 9.92 ± 0.071.
To “AAAAAAAAAAAAAATACACACAAACACAAATTAAAT [CACACA_site5982]” belongs 10.1 ± 0.22; to “AATAAAGGAAATAAATAATTTATTTTGTAAAATATG [CACACA_negctrl_site97]”, 9.98 ± 0.12.
To “ATATATATGAATACATGTACGTATTTGTCTATGTAT [XGTACX_site8306]” belongs 11.5 ± 0.66.
As to “CAATGTTAACATATTACACACATATGTATTTATAAT [CACACA_site5512]”, the “gcPBM binding intensity (ln)” value is 10.06 ± 0.014.
To “GCATATATTATATATTTATTTATTTTTTTTTTTTAA [GTGCAC_negctrl_site193]” belongs 9.45 ± 0.16; to “TAAATTACATGAAATTGTACATGAATATTAAATATA [XGTACX_site3909]”, 10.7 ± 0.45.
To “ATATATACAAAGGATTAACACACATATTATTATATA [CACACA_site8563]” belongs 9.81 ± 0.014; to “TTCGTTATAATTGAATTTACAATATGCTTTATAATG [XGTACX_negctrl_site238]”, 9.76 ± 0.11.
As to “AAAATATTTATATTTACACACACATAATACATATAT [CACACA_site32]”, the “gcPBM binding intensity (ln)” value was 10.15 ± 0.099.
Then “GTGTACAGTTTTTGCACACATATAAATAAAAAAAAG [CACACA_site3599]”, with 11.2 ± 0.66.
Then “TATAAATACATACGTACACACAAATATTAAAATATA [CACACA_site5129]”, with 11.5 ± 0.87; and “AAATAAAATTATAATACATGCATACATACATATATA [TGCATGCA_site69]”, with 9.82 ± 0.028.
For “TGTGTTAATATATGAAGTACACAATACACACTAATT [XGTACX_site5469]”, the “gcPBM binding intensity (ln)” value stood at 11.4 ± 0.73.
Then “ATGTTACTCAGACACACACACATAAAAAAACAAAAA [CACACA_site3249]”, with 10.4 ± 0.53; and “CGAACTGCACTTTTTAGTACTTAATAATTATTTTTT [XGTACX_site2446]”, with 11 ± 0.51; and “TAATATCATTTATGGGGTACCTCCTATTCTTATTTA [XGTACX_site1839]”, with 11.1 ± 0.46.
“AAAAAAAACATCCTCACACATATATATATATATATA [CACACA_site5166]”: the “gcPBM binding intensity (ln)” value was determined as 9.92 ± 0.28.
Then “TCATATGTTAAATGATGTACATTTAATATAAATAAA [XGTACX_site900]”, with 11 ± 0.69; and “TATATATATTTATGCACACAAAATATATTATATAAT [CACACA_site5955]”, with 10.1 ± 0.27; and “AGGAAAAAAGAAAAAACACACATAAATATTTATATA [CACACA_site7446]”, with 9.7 ± 0.099.
Then “TAATAATTACAAAGAAGTACATAAAAAAAAATTTAT [XGTACX_site4684]”, with 11.5 ± 1.
To “CTATATATATATTTCAGTACATATTAAGAATATATA [XGTACX_site4860]” belongs 11 ± 0.73; to “TTCTAATAAATGTGTTGTACACCTTTAGCAACTATT [XGTACX_site3235]”, 11.3 ± 0.83; to “TATATAAATATATACACACATACATACATACATATA [CACACA_site3835]”, 10 ± 0.12.
Take “ATATATATAAATACAACACACATGTAATATATAAAT [CACACA_site5766]”: the “gcPBM binding intensity (ln)” value stood at 9.965 ± 0.035.
To “ACGTAAAATAGGGACGCATGCACAAATATTTTTAAA [TGCATGCA_site336]” belongs 10.6 ± 0.42.
Then “TATACATCATTTTTCAACAACAAAAAAAAAAAAAAT [CACACA_negctrl_site1185]”, with 9.92 ± 0.44; and “AAAAATATAATATATGCACACATACATACATATATA [CACACA_site7915]”, with 9.865 ± 0.049.
Take “ATAATTAGTTCAATTTTTTTTTTTTTTTTTTTTTTT [CACACA_negctrl_site1371]”: the “gcPBM binding intensity (ln)” value came out at 10.9 ± 0.54.
To “ATTAATTATATATATACACACACATACACCCAAATA [CACACA_site9126]” belongs 10.5 ± 0.36; to “TAAATACTTCGTAAAACACACAAGTAGAAAAAAAAA [CACACA_site360]”, 10.1 ± 0.16.
Regarding “TTATTTATTTATTGTTGTACACAAAATGATTCTTAA [XGTACX_site6480]”, the “gcPBM binding intensity (ln)” value turned out to be 11.6 ± 1.1.
To “AAACAAAACAAAACATGTACACATTATATATATATA [XGTACX_site3374]” belongs 11.6 ± 1.2; to “ATTGTGTTGACGGGTGACCCTTCCAGAGAAATAGAA [CACACA_negctrl_site1362]”, 10.4 ± 0.4; to “TTTTTTTTAATGAGAAGTACGGTCTTTCAATGTCTT [XGTACX_site6773]”, 10.9 ± 0.73.
Turning to “TTTACATTTATGTGCACACATTCCATTTGAAAGTAA [CACACA_site1953]”, the “gcPBM binding intensity (ln)” value is 10.5 ± 0.34.
To “AATATTTTTTTTTAAACATGCATATTTGCATTACCC [TGCATGCA_site437]” belongs 9.91 ± 0.11; to “ATAACTTTCTATACATGTACACATATATGGTATTTT [XGTACX_site7535]”, 11.3 ± 0.69.
Then “ATAAATTTTTTATGAACACACAAATACACCCACTCA [CACACA_site5465]”, with 10.9 ± 0.48; and “TGTATATATTTTAATAGTACTCATATATATATATAT [XGTACX_site7216]”, with 11.3 ± 0.59.
To “CTTATAAAAAAAATTGCACACATATTATACAGGACG [CACACA_site8133]” belongs 10.3 ± 0.18.
As to “TCCCCTTAATTTAAAACACACAAACAAATAAGTTAG [CACACA_site5973]”, the “gcPBM binding intensity (ln)” value came to 9.965 ± 0.064.
